# Assay results as given in PubChem BioAssay AID463173 (ICCB-Longwood Screening Facility, Harvard Medical School, 2010).
# The campaign covered roughly 52,000 compounds. About 1,700 (3.3%) were called active. Cut-off read from the data, not from the text of the source: active = survival mostly below about 52% (no sharp cut-off); inactive = mostly above about 56%. The list shows a part of the results.
# Test system: Wild type
# Assay: S. aureus survival, RN4220 and DeltatarO strains – OD600, teichoic acid synthesis inhibitors, primary screen (AID 463173)
# Settings: S. aureus RN4220 wild type/DeltatarO growth, OD600, 18 h, stronger effect = lower value, screened at 18.75 µg/mL (by protocol)
row,SMILES,survival
1,O=C(CN1N=C(c2ccc(Cl)cc2)CCC1=O)NCc1ccc(F)cc1,inactive: 64%
2,COc1ccc(OC)c(CNCc2c(C(=O)O)n(Cc3ccccc3)c3cc(OC)ccc23)c1,inactive: 84%
3,Cc1ccc(-c2cc(C(F)(F)F)n3nc(C(=O)Nc4ccc(C#N)cc4)cc3n2)cc1,inactive: 71%
4,CCOc1ccccc1CNC(=O)CCCN1C(=O)CCn2nc(-c3cccn3C)cc21,inactive: 72%
5,CCc1ccc(-n2nc(C)c3c(C)cc(=O)n(CC(=O)Nc4ccc(OC)c(OC)c4)c32)cc1,inactive: 77%
6,Cc1ccc(CNC(=O)C2CCN(S(=O)(=O)c3ccc4c(c3)oc(=O)n4C)CC2)cc1,inactive: 93%
7,CCOC(=O)c1c(C)[nH]c(C)c1S(=O)(=O)N1CCCC(C(=O)N2CCN(c3cc(C)ccc3C)CC2)C1 (configuration not stated),inactive: 72%
8,COc1ccc(Cl)cc1N(C)C(=O)Cn1cnc2sc(C)c(S(=O)(=O)N3CCN(c4ncccn4)CC3)c2c1=O,inactive: 76%
9,CCC(CC)C(=O)Nc1ccccc1C(=O)OCc1cc(=O)n2nc(C3CCCCC3)sc2n1,inactive: 90%
10,CCOc1ccc(CNC(=O)Cn2ncc3c(=O)oc4ccc(C)cc4c32)cc1,inactive: 87%
11,Cc1ccc(C)c(CN2C(=O)c3ccccc3S(=O)(=O)c3ccc(C(=O)N4CCOCC4)cc32)c1,inactive: 121%
12,CC(C)NC(=O)CSc1nnc(Cc2ccccc2)n1Cc1ccco1,inactive: 97%
13,COc1ccc(C(=O)N2CCCCC2CCN2CCCCC2)cc1 (configuration not stated),inactive: 88%
14,COc1ccc(Cl)cc1NC(=O)[C@H]1O[C@@H]2OC(C)(C)O[C@@H]2[C@H]2OC(C)(C)O[C@H]21,inactive: 83%
15,CCN1C(=O)N(C)C2C1N(C)C(=O)N2CC (configuration not stated),inactive: 105%
16,Cc1cc(C)c(NC(=O)CCn2nnc3ccccc32)c(C)c1,inactive: 100%
17,O=S(=O)(c1cccs1)N1CCN(c2ccc(Cl)cc2)CC1,inactive: 74%
18,COC(=O)c1cc(NC(=O)CN(c2ccccc2)S(=O)(=O)N(C)C)ccc1Cl,inactive: 77%
19,CCN1CCN(C(=O)c2ccc3c(c2)N(Cc2cc(C)ccc2C)C(=O)c2ccccc2S3=O)CC1 (configuration not stated),inactive: 98%
20,COc1ccc(NC(=O)Cn2cc(C(=O)C3CC3)c3ccccc32)cc1,inactive: 91%
21,CCOc1ccccc1NC(=O)Cn1nnc2sc3c(c2c1=O)CCC(C(C)(C)C)C3 (configuration not stated),inactive: 119%
22,NS(=O)(=O)c1ccc(CCNc2nc3c(-c4cccc(F)c4)nnn3c3ccc(Cl)cc23)cc1,inactive: 71%

row,SMILES,survival
1,CCCCN(CCCC)S(=O)(=O)c1ccc2oc(C(=O)NCc3ccccc3)c(C)c2c1,inactive: 73%
2,CCOC(=O)c1c(C)oc2c(Cl)cc(NS(=O)(=O)c3ccc(Cl)c(C)c3)cc12,inactive: 54%
3,Cc1ccc(CSc2nc3ccc(NC(=O)COc4ccccc4F)cc3s2)cc1,inactive: 98%
4,CCN(CC)CCCNC(=O)Cn1c(-c2cccs2)cc2cc(Cl)ccc21,inactive: 68%
5,O=C(CCCCn1c(=O)[nH]c2ccsc2c1=O)N1CCN(c2cccc(Cl)c2)CC1,inactive: 91%
6,CCOC(=O)c1c(C)[nH]c(C)c1S(=O)(=O)N(C)CC(=O)N1CCN(c2ccccc2OC)CC1,inactive: 131%
7,CCOC(=O)N1CCN(C(=O)CN(c2ccc(C)cc2C)S(=O)(=O)c2ccccc2)CC1,inactive: 69%
8,O=C(CN1C(=O)C2(SCC(=O)N2c2cccc(Cl)c2)c2ccccc21)NC1CCCCC1 (configuration not stated),inactive: 91%
9,Cc1cc(C)c(/C=C/c2onc(C)c2S(=O)(=O)N2CCC(C(=O)NCc3ccco3)CC2)c(C)c1,inactive: 72%
10,Cc1nn(CC(=O)N2CCN(c3ccccc3)CC2)c(=O)c2cccn12,inactive: 87%
11,CCOCCN1CCN(c2c3c(nc4cc(-c5cccc(C)c5)nn24)CCC3)CC1,inactive: 118%
12,O=C(CNS(=O)(=O)c1ccc(Br)s1)N1CCN(c2ccccc2F)CC1,inactive: 72%
13,Cc1ccc(-c2nc3c(cnn3-c3ccccc3)c(=O)n2-c2ccc(Cl)cc2)cc1,inactive: 70%
14,O=C(COCc1cc(-c2ccco2)on1)Nc1ccc(OC(F)(F)F)cc1,inactive: 101%
15,COc1cccc(OC)c1C(=O)Nc1ccc2c(c1)CCCN2S(=O)(=O)c1ccc(C)cc1,inactive: 93%
16,CCc1nn(CC(=O)NCc2cccc(OC)c2)c(=O)c2cc3cc(F)ccc3n12,inactive: 69%
17,Cc1oc(-c2ccc(Cl)cc2)nc1Cn1c(=O)cc(-c2ccccc2)c2c(C)nn(C)c21,inactive: 85%
18,c1ccc(NCc2cccnc2)cc1,inactive: 107%
19,Cc1ccc(-n2ncc3c(NCCC4=CCCCC4)ncnc32)cc1C,inactive: 131%
20,CCc1ccc(NC(=O)c2ccc(CN3C(=O)C(C)=C(c4ccc(C)cc4)S3(=O)=O)cc2)cc1,inactive: 84%
21,O=C(O)CCC(=O)Nc1cccc(C(=O)N2CCCCC2)c1,inactive: 105%
22,COc1ccc(-c2onc(C)c2C)cc1S(=O)(=O)N1CCC(C)CC1,inactive: 81%

row,SMILES,survival
1,CSc1nc2c([nH]c3ccccc32)c(=O)n1-c1ccc(F)cc1,inactive: 113%
2,COc1cccc(-c2nc(C(N)=O)c3c(n2)n(-c2ccc4c(c2)OCO4)c(=O)n3C)c1OC,inactive: 87%
3,Cn1c(C(=O)NCc2cccc(F)c2)cc2cc(S(=O)(=O)N3CCCCC3)ccc21,inactive: 71%
4,CCOc1ccccc1NC(=O)CSc1cc(=O)n(CC)c2ccccc12,inactive: 97%
5,O=C(Cn1cc(S(=O)(=O)Cc2ccc(F)cc2)c2ccccc21)NCc1ccccc1,inactive: 68%
6,COc1ccccc1CCNC(=O)c1cccn1-c1nnc(N2CCCCC2)s1,inactive: 87%
7,OC(c1ccc(Br)cc1)C12CN3CN(CN(C3)C1)C2 (configuration not stated),inactive: 106%
8,CC(=O)c1cc(-c2ccccc2)n(CCC(=O)Nc2cc(C)cc(C)c2)c1C,inactive: 110%
9,CCOc1ccc(-c2cc(C(F)(F)F)c(C#N)c(SCC(=O)Nc3ccccc3)n2)cc1,inactive: 60%
10,CCCNC(=O)CN1C(=O)c2cccnc2Sc2ccccc21,inactive: 55%
11,Cc1cccc(NC(=O)CSc2nc(C)c(Cc3ccccc3)c(=O)[nH]2)c1,inactive: 39%
12,CSc1nnc(-c2cc3ccccc3cc2O)n1C,inactive: 111%
13,O=C(NCc1ccco1)C(c1ccccc1)N(CCc1ccccc1)C(=O)Cn1nnc2ccccc21 (configuration not stated),inactive: 111%
14,CCOc1ccc2[nH]c(=O)c(CN(CCc3ccccc3)C(=O)N(C)C)cc2c1,inactive: 105%
15,COc1ccccc1N1CCN(C(=O)c2c3c(nc4ccccc24)C(=O)N(C2CCCCC2)C3)CC1,inactive: 87%
16,Cc1ccc(C)c(N2CCN(C(=O)c3c4c(nc5ccccc35)C(=O)N(C3CCCCC3)C4)CC2)c1,inactive: 95%
17,COc1ccc(-c2nc(CNS(=O)(=O)c3ccc(F)cc3)cs2)cc1,inactive: 123%
18,CCCOc1cccc(C(=O)Nc2ccc(-c3nc4ccccc4o3)cc2)c1,inactive: 75%
19,O=C(CSc1nc2c(c(=O)[nH]1)CN(Cc1ccc3c(c1)OCO3)CC2)Nc1ccc(F)cc1,inactive: 81%
20,CCC(C)NC(=O)c1sc2nc(C)c(C(=O)Nc3ccc(Cl)cc3)c(-c3ccc(Br)cc3)c2c1N (configuration not stated),inactive: 106%
21,COc1cc(OC)cc(-n2c(=O)c3ccccc3n(CC(=O)NCCc3ccc(OC)c(OC)c3)c2=O)c1,inactive: 77%
22,COc1ccc2cc(CNc3ccc(OC)c(OC)c3)c(=O)n(CC(=O)Nc3ccc(C)cc3)c2c1,inactive: 71%

row,SMILES,survival
1,COc1cc(C(=O)Nc2ccc(OCc3cc(=O)n4cc(C)sc4n3)cc2)cc(OC)c1OC,inactive: 125%
2,O=C(NCCc1ccccc1)c1c[nH]c2ccc(S(=O)(=O)Nc3ccccc3F)cc2c1=O,inactive: 68%
3,Oc1cccc(C(=S)N2CCCCC2)c1,inactive: 98%
4,COc1ccc(NC(=O)Nc2nnc(N(C)C3CCCCC3)s2)c(OC)c1,inactive: 73%
5,O=C(Nc1ccc(O)c(-c2nc3ccccc3o2)c1)c1ccco1,inactive: 79%
6,CCOC(=O)c1sc(NC(=O)COc2ccccc2Cl)c(C(=O)OCC)c1C,inactive: 99%
7,CC1CCN(C(=O)c2cc(-c3ccc(Cl)cc3)on2)CC1,inactive: 85%
8,Cc1ccccc1NC(=O)CSc1nc2c(oc3ccccc32)c(=O)n1-c1ccccc1F,inactive: 114%
9,Cc1cc(=O)n(CC(=O)O)c2ccccc12,inactive: 98%
10,CC1=C(C(=O)OCC2CCCCC2)C(c2c(F)cccc2Cl)CC(=O)N1 (configuration not stated),inactive: 98%
11,CCOc1ccc(S(=O)(=O)N(CC(=O)N2CCCCC2)c2ccccc2)cc1,inactive: 105%
12,COCCNC(=O)c1cc(Sc2ccc(F)cc2F)nc2ccccc12,inactive: 79%
13,COc1cc(OC)c(NC(=O)Nc2ccccc2OCc2cc(=O)n3cc(C)ccc3n2)cc1Cl,inactive: 101%
14,COc1ccc(CCNC(=O)CCc2c(C)nc3nc(C)nn3c2C)cc1OC,inactive: 71%
15,CCc1ccc(S(=O)(=O)c2nnn3c2nc(NC2CCCC2)c2sccc23)cc1,inactive: 83%
16,COc1ccc(C)cc1NC(=O)CCS(=O)(=O)c1ccc2c(c1)CC(=O)N2C,inactive: 55%
17,CCOc1ccccc1NC(=O)CN1CCC(NC(=O)Nc2ccccc2)CC1,inactive: 92%
18,CC(=O)N1c2nc(-c3ccco3)nn2C2(CCCCC2)[C@@H]2CCCC[C@@H]21,inactive: 95%
19,COc1ccc(NC(=O)CN(C)S(=O)(=O)c2ccc3[nH]c4c(c3c2)CCCC4)cc1Cl,inactive: 75%
20,COc1ccc(-n2ccn(Cc3ccc(C)cc3)c(=O)c2=O)cc1OC,inactive: 94%
21,O=C(c1ccc2c(c1)N(Cc1ccc(F)cc1)C(=O)c1ccccc1S2(=O)=O)N1CCC(Cc2ccccc2)CC1,inactive: 86%
